Measurements as given in ChEMBL document CHEMBL4888484, “Replenishing the malaria drug discovery pipeline: Screening and hit evaluation of the MMV Hit Generation Library 1 (HGL1) against asexual blood stage Plasmodium falciparum ,using a nano luciferase reporter read-out” (2022).
Hit rate of the full screen: of about 150,000 compounds, about 540 (0.36%) showed an effect of 50% or more. The list shows a part of the results.

system: Plasmodium falciparum; test: Primary screen in NF54 nanoGlo assay, in single point, at 2uM, 72h; a lower Z score goes with more inhibition; assay type: functional, Erythrocyte; conditions: timepoint 72 hour

SMILES	% Inhibition [%]	Z score
CC(CN1CCCCCC1)NC(C)C(C)N1CCOCC1 (stereo not drawn)	-8	0.76
CN1CCN(c2ncnc(-c3ccc(Cl)cc3F)c2N)CC1	-17	2.28
COc1cccc(N2CCN(C(=O)c3ccc(-c4noc(C5CCCC5)n4)cc3)CC2)c1	-10	1.21
CC(C)(C)N(CC(N)=O)Cc1ccc(C#N)cc1Br	6	-0.53
CC(Cn1ccnc1)NC(=O)C1(C)CC1(Cl)Cl (stereo not drawn)	-33	3.92
Cc1cc(CNS(=O)(=O)c2cccc(-n3cnnn3)c2)no1	7	-0.66
CCN(CC1CCOCC1)C(=O)c1cccc(CC2CCNCC2)c1	-8	1.48
O=S(=O)(NC1CC1)c1ccc2c(c1)OCCCO2	0	0.01
O=C(CCN1C[C@@H]2CC[C@H]1C2)NCc1cc(-c2ccccc2Cl)on1	-7	1.04
CC(C)C[C@H]1CN(C)CCN1C(=O)CN1CCOCC1=O	-3	0.42
C=CCN(Cc1cccc2c1OCCO2)[C@H]1CCS(=O)(=O)C1	-8	0.66
Cc1[nH]c(C(=O)NCc2cccnc2)c(C)c1S(=O)(=O)N1CCCCCC1	2	-0.25
Cn1cc(C(O)CNC(=O)NC2CC2c2cccc(Cl)c2)cn1 (stereo not drawn)	-12	1.27
O=C(COc1ccc(-c2ccccc2)cc1)Nc1ccc2c(c1)OCCCO2	0	-0.01
Cc1ncccc1C(=O)N1C[C@H](CN(C)C)C2(CCCCC2)C1	-3	0.56
COc1ccccc1NC(=O)[C@@H]1CCn2c(C(=O)c3ccccc3)ccc21	1	-0.2
CCOC(=O)NCC(=O)NCCc1cccs1	-18	1.85
O=C(c1cccs1)N1CC[C@H](c2cccs2)C1	-12	2.48
CC(C)NS(=O)(=O)N(C)Cc1noc(C2CC2)n1	1	-0.15
Cc1ccncc1C(=O)N1CCCN(Cc2ccncc2)[C@H](c2ccccc2)CC(=O)NCC1	-4	0.48
CC(=O)N(Cc1cccnc1)c1cc(C)ccc1Cl	-4	0.46
O=C(C[C@H]1CCOC1)NCCc1nc2ccccc2o1	-13	1.99
CCOC1CC(N(C)Cc2cn(C(C)(C)C)nn2)C12CCC2 (stereo not drawn)	9	-1.08
Cc1cc(C(F)(F)F)cc(-c2ccc(C(=O)NC[C@@]3(C)CCCO3)cc2)n1	-14	1.37
N#Cc1ccc2c(c1)N(Cc1ccccc1F)C(=O)[C@@H]1CCCN21	32	-0.66
CC[C@@H]1Oc2ccccc2N(CC(=O)NCCC2=CCCCC2)C1=O	-8	1.36
Cc1nc([C@@H]2CCCCN2C(=O)c2cnc3c(c2)NC(=O)CO3)no1	12	-1.59

SMILES	% Inhibition [%]	Z score
CCCc1cc(C(=O)N[C@H](c2ccccc2)C2CC2)[nH]n1	-2	0.35
COc1ccc(CN2CCn3c(nn(C)c3=O)C2)cc1Cn1ccnc1	-20	3.44
O=C1CCC2(CCN(CCn3cnc4ccccc43)CC2)CN1C[C@H]1CCCO1	2	-0.27
Cc1ccc([C@@H]2CCCN2S(C)(=O)=O)s1	-1	0.28
COCCN(C)C[C@@H]1C[C@H](CO)CN(C(=O)c2ccc(F)cc2C)C1	-1	0.18
CC(C)[C@H](NC(=O)N1CC(=O)Nc2ccccc21)C(=O)NCc1ccccc1F	10	-1.28
C[C@H](CO)CN(Cc1ccccc1)C(=O)CS(C)(=O)=O	-11	1.56
Cc1cc(NC(=O)c2ccccn2)ccc1N1CCCC1=O	-9	0.83
Cc1ncc(Cl)c(C(=O)Nc2ccc3c(ccn3CC(C)C)c2)n1	-6	0.83
Cc1cccc(C(=O)NCCN2CCN(S(=O)(=O)c3ccccc3)CC2)c1	-20	2.36
Nc1ncncc1-c1noc([C@@H]2CCCN2Cc2ccc(C(=O)O)cc2)n1	-1	0.07
CCn1cc(CN(C)Cc2scnc2C)c(C)n1	-8	1.07
O=C(Nc1cccc2ccccc12)C1CCN(c2cc(-c3ccc(F)cc3)ncn2)CC1	-2	0.24
O=C(NCc1ccc(N2CCCC2=O)cc1)c1csc(S(=O)(=O)NCc2ccc(N3CCCC3=O)cc2)c1	-9	1.84
CCN1CCc2ncnc(N3CCN(C(=O)[C@@H]4CCCO4)CC3)c2C1	-1	0.09
CCc1ncc(CN2CCCn3nc(CNC(=O)C4CCC4)cc3C2)cn1	-14	1.61
CCS(=O)(=O)N1CCC[C@H](C(=O)N2CC(=O)Nc3ccccc32)C1	-23	2.09
CCCCS(=O)(=O)Nc1cnn([C@H]2CCOC2)c1	10	-1.27
Cc1cc(NC(=O)c2cccc(C)c2Cl)nc(=O)[nH]1	-12	1.23
CC(C)c1cc(C(=O)Nc2ccon2)cs1	-12	1.64
CC(C)(CNC(=O)NCc1ccccc1)c1ccsc1	-5	0.89
CC1CN(C(=O)CCc2ccccc2N)C(c2ccccc2)CO1 (stereo not drawn)	-7	0.91
CC1C(=O)CCN(Cc2ccco2)C1C (stereo not drawn)	-5	0.56
O=C1[C@H]2[C@@H](C(=O)N1c1cccc(Cl)c1)[C@]1(C(=O)Nc3c(Cl)cccc31)N1CCC[C@@H]21	1	-0.08
Cc1ccc(CCN2C(=O)CC[C@@H]3CN(C(=O)c4cc[nH]n4)CC[C@@H]32)o1	-18	1.62
CN1CCOC(C(=O)N2CC3CCCCC3C2)C1 (stereo not drawn)	-19	2.61
O=C(NC1CCCCC1)[C@H]1CC(=O)N(Cc2cc(C(F)(F)F)cc(C(F)(F)F)c2)C1	6	-0.66
